Measurements reported in PubChem BioAssay AID1159614 (National Center for Advancing Translational Sciences (NCATS), 2016).
About 65 (0.1%) of roughly 45,000 compounds were called active. Calls come from the whole dose curve; as a rule, active = well fitted activation curve with a large enough effect; inconclusive = small, poorly fitted or top-dose-only effect; inactive = no such curve, though single readings can be large or run the other way. This is one part of the list.

Target: Galactocerebrosidase (Homo sapiens) (UniProt P54803)
Experiment: A Novel Cell-Based Assay to Identify Small Molecules for B -Galactocerebrosidase; note: 0% is about no effect; nearly all actives have a fitted effect of over 65% in size
Conditions: 145M-Twi-hGALC-G270D cells, HMU-beta-Gal fluorescence, 48 h; series mostly up to 57.5 µM; activation: at the top concentration
Outline: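 qHTS, 1536-well; 145M-Twi-hGALC-G270D cells (WT line also made) in DMEM/F12 + 10% FBS; compound incubation on live cells; HMU-β-gal 0.1 mM final, pH 5.2, NaTC; carbonate stop; fluorescence increase = enhanced residual activity.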

UniProt P54803, sequence (P54803 whole entry, looked up): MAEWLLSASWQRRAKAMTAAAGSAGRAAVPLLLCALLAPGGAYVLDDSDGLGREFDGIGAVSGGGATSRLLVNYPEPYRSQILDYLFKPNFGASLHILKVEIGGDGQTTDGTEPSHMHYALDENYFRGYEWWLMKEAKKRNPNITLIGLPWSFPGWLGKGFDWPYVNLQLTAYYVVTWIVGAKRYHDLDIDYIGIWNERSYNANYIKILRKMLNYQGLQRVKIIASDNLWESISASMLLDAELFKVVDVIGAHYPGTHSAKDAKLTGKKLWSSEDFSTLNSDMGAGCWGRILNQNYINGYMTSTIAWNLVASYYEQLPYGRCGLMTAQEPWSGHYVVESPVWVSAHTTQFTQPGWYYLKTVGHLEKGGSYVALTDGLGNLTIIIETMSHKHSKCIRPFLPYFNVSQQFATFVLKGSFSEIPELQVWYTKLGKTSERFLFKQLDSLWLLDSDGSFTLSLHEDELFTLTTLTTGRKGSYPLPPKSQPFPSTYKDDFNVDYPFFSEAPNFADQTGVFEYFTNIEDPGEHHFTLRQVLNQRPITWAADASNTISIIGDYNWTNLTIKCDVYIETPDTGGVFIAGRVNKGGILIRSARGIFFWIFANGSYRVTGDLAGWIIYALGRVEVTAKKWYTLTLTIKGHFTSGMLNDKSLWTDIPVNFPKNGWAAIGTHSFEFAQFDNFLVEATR

activation, inactive:
Cc1ccc(C(=O)N(Cc2sccc2C)C2CCS(=O)(=O)C2)cc1 (stereo unspecified) 2.41%, O=C(NC1CCCC1)c1ccc2c(c1)N(Cc1ccc(C(F)(F)F)cc1)C(=O)c1ccccc1S2 -15.6%, Cc1ccccc1Cn1c(=O)n(Cc2ccc3c(c2)OCO3)c(=O)c2oc3ccccc3c21 1.76%, NC(=O)c1ccccc1NC(=O)C1CCCN(c2ncnc3onc(-c4ccc(F)cc4)c23)C1 (stereo unspecified) -8.35%, O=C(c1cccs1)N(Cc1cccnc1)c1nc2c(Cl)cccc2s1 -1.89%, O=C(c1ccc(C(F)(F)F)cc1)N1CCC(c2noc(-c3ccc(S(=O)(=O)N4CCCC4)cc3)n2)CC1 -15.8%, O=C(CCc1nc2cccnc2n1Cc1cccs1)Nc1cccc(C(F)(F)F)c1 -18.5%, Cc1ccc(NC(=O)CN2C(=O)CCc3cc(S(=O)(=O)N4CCOCC4)ccc32)cc1N(C)C -3.89%, COc1ccc(Nc2c3c(nc4ccc(NC(=O)/C=C/c5cc(OC)c(OC)c(OC)c5)cc24)CCCC3)cc1OC -14.3%, O=C(Nc1ccc(-c2nc3cc(NC(=O)c4ccccc4Cl)ccc3o2)cc1)c1ccccc1Cl -13.1%, COc1ccc(-c2noc(CCC(=O)N(C)c3ccccc3C)n2)cc1 -4.7%, COc1ccc(N2CCN(C(=O)CSc3n[nH]c(-c4ccccc4)n3)CC2)cc1 2.1%, COCCCNS(=O)(=O)c1cc(-c2onc(C)c2C)ccc1OC -1.56%, CN(C)C(=O)c1ccc(NC(=O)Cn2nnnc2-c2ccccc2F)cc1 -7.1%, Cc1ccccc1C(=O)N(Cc1ccc(N(C)C)cc1)Cc1ccco1 -6.57%, COc1ccccc1CNC(=O)Cc1c(C)c2c(cc(C)c3c(C)coc32)oc1=O -16.2%, CN(C)c1ccc(CN(CC2CCCO2)C(=O)COc2ccccc2Cl)cc1 (stereo unspecified) -11.2%, N#Cc1ccc(-c2cccs2)nc1SCc1c(F)cccc1Cl -18.9%, COc1ccc(N(CC(=O)NCc2ccc(F)cc2)S(=O)(=O)c2c(C)noc2C)cc1 -17.7%, CCCN(c1ccc(C(C)C)cc1)S(=O)(=O)c1ccc2c(c1)CCN2C(=O)CC -5.18%, COc1ccc(OC)c(-c2nc3c(C#N)c[nH]n3c2NC2CCCCC2)c1 -5.78%, Cc1cccc(OCC(=O)NC(Cc2c[nH]c3ccccc23)C(=O)O)c1C (stereo unspecified) -14.9%, COc1ccc(CCNC(=O)C(=O)NCC(c2ccc3c(c2)OCO3)N2CCOCC2)cc1 (stereo unspecified) 7.24%, CC1=C(C(=O)Nc2ccc(Cl)cc2)C(c2ccccc2C)n2ncc(C(=O)Nc3ccc(C)cc3)c2N1 (stereo unspecified) -8.13%, CN(C)c1ccc(CNC(=O)C2CCCN(S(=O)(=O)c3ccc4c(c3)oc(=O)n4C)C2)cc1 (stereo unspecified) -9.05%, CCc1nonc1NC(=O)c1oc2ccc(F)cc2c1C -9.57%
